# Assay results: PubChem BioAssay AID686978 (National Center for Advancing Translational Sciences (NCATS), 2013)
# Among all 420,000 compounds or so, about 64,000 (15%) were called active. This list was built around the results that the source calls inconclusive (neither active nor inactive); the mix of calls is not that of the screen. Calls come from the whole dose curve; as a rule, active = well fitted inhibition curve with a large enough effect; inconclusive = small, poorly fitted or top-dose-only effect; inactive = flat fitted curve, though single readings scatter. Potencies of inconclusive entries are left out as doubtful fits.
# Assay: qHTS for Inhibitors of human tyrosyl-DNA phosphodiesterase 1 (TDP1): qHTS in cells in absence of CPT; note: nearly all actives have a fitted effect of over 55% in size
# Conditions: DT40 Tdp1-/- hTDP1 cells, no CPT, ATP luminescence, 48 h; activity change, negative = growth inhibition: at 46.2 µM (top of the series) unless noted
# Method in brief: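 Seeded 400 DT40-hTDP1 cells/well (vehicle DMSO, no 20 nM CPT); pinned compounds; ≥48 hr at 37 °C; CellTiter-Glo luminescence as viability measure.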
# % is set by controls: 0 for no effect and ±100 for the full control effect; potency is the fitted concentration of half-maximal effect; tags give direction and shape of the fitted curve.
Compound,Potency,"activity change, negative = growth inhibition"
CCOc1ccc(S(=O)(=O)N2CCCCC2)cc1NC(=O)Cc1cccs1,active: 18.4 µM,
COc1ccc(CCNC(=O)CCC(=O)c2cccs2)cc1OC,inactive,
CCOC(=O)C(Cc1ccccc1)C(=O)Nc1cccc(C)c1 (stereo unspecified),inactive,
CC1(C(=O)NC2CCc3ccccc32)CCN1CCc1ccccc1 (stereo unspecified),active: 18.4 µM,
O=C(c1cc(C2CC2)nn1-c1ccccc1)N1CCN(S(=O)(=O)c2ccc(F)cc2)CC1,"inconclusive [inhibitor, single point]",
O=C(CNC(=O)c1ccco1)OCc1ccccc1F,inactive,
N#Cc1nc(COc2ccc(Br)cc2)oc1NCCCn1ccnc1,"inconclusive [inhibitor, partial curve, poor fit]",
CCc1ccc(NC(=O)CCn2cnc3ccccc3c2=O)cc1,inactive,
Cn1c(Oc2ccc(F)cc2)c(C=O)c2ccccc21,"inconclusive [inhibitor, partial curve, poor fit]",
CC#CCN1C=C(C(=O)OCC)C(C)N(Cc2ccc(Br)cc2)S1(=O)=O (stereo unspecified),active: 23.1 µM,
CC(=O)c1cc2c(cc1NC(=O)C1CCC1)OCO2,inactive,
COc1ccccc1C(=O)C1CCCN(C(=O)c2cccc(Cn3cccn3)c2)C1 (stereo unspecified),"inconclusive [inhibitor, single point]",
CC(=O)c1ccc(NC(=O)Nc2ncn(Cc3cccc(C)c3)n2)cc1,"inconclusive [inhibitor, full curve, poor fit]",
CN(C)S(=O)(=O)c1cccc(-c2nn(-c3ccccc3)cc2/C=C2\SC(=S)NC2=O)c1,"inconclusive [inhibitor, single point]",
Cc1ccc(OCC(=O)NCCO)c(Br)c1,inactive,
O=C(Cn1cnc2ccccc2c1=O)c1ccc2ccccc2c1,"inconclusive [inhibitor, partial curve]",
NS(=O)(=O)c1cccc(NC(=O)c2cccc(Oc3ccccc3)c2)c1,"inconclusive [inhibitor, single point]",
CCc1c(-c2ccccc2F)ncn1Cc1cccc(-c2ccccc2)c1,active: 2.59 µM,
Clc1ccc(-c2cn(-c3ccccc3)c3[n+]2CCS3)cc1,active: 6.51 µM,
NC(=O)c1ccccc1NC(=O)COc1ccc2c(c1)OCO2,"inconclusive [inhibitor, single point]",
CCCc1cc(=O)oc2c(CN3CCCC3)c(O)ccc12,"inconclusive [inhibitor, single point]",
N#Cc1nc(COc2ccc(-c3ccccc3)cc2)oc1N1CCC(C(N)=O)CC1,active: 17.8 µM,
COc1cccc(CNC(=O)c2c(OC)cc(=O)n3c2CCN(C(=O)c2ccc(C)nc2)CC3)c1,inactive,
Cc1cc(N=Nc2ccc(C)c(N=Nc3cc(C)c(N)cc3N)c2)c(N)cc1N,active: 11.6 µM,

Compound,Potency,"activity change, negative = growth inhibition"
CCn1c(CCCOc2ccc(Cl)cc2Cl)nnc1SCC(=O)Nc1cc(F)ccc1C,"inconclusive [inhibitor, single point]",
N#Cc1c(NC(=O)CSc2n[nH]c(Cc3ccccc3)n2)oc(-c2ccccc2)c1-c1ccccc1,,inconclusive: -30% [inhibitor]
CS(=O)(=O)N1CCC2(CCN(c3ccccn3)CC2)CC1,inactive,
O=C(Nc1ccccc1C(F)(F)F)N1CCN(c2ccc3nnc(-c4ccc(F)cc4)n3n2)CC1,"inconclusive [inhibitor, partial curve]",
O=C(CCn1cnc2onc(-c3ccc(F)cc3)c2c1=O)N1CCN(c2cccc(Cl)c2)CC1,active: 16.4 µM,
CCOc1ccc(CNC(=O)C2Cc3cc(S(=O)(=O)N4CCCCCC4)ccc3N2C(C)=O)cc1 (stereo unspecified),"inconclusive [inhibitor, single point]",
COc1cc2c(cc1NC(=O)c1cccc([N+](=O)[O-])c1)oc1ccccc12,"inconclusive [inhibitor, single point]",
CC(C)(C)NCC(O)COc1ccccc1C(=O)CCc1ccccc1 (stereo unspecified),active: 14.6 µM,
CCCn1c(N)c(N(CCOC)C(=O)CSc2c(Cl)cccc2Cl)c(=O)[nH]c1=O,inactive,
COc1ccc(OC)c(NC(=O)CSc2nc3ccccc3c(=O)n2CC2CCCO2)c1 (stereo unspecified),inactive,
CN1CC=C2C(C#N)=C(N)C(C#N)(C#N)C(CCc3ccccc3)C2C1 (stereo unspecified),"inconclusive [inhibitor, single point]",
COc1ccc(N(CC(=O)NCCSCc2ccco2)S(=O)(=O)c2ccccc2)cc1,"inconclusive [inhibitor, single point]",
O=C(CC(=O)NC1CCCCC1)N/N=C/c1ccc(Cl)cc1,inactive,
CCOC(=O)N1CCN(C(=O)CCSCCc2ccncc2)CC1,"inconclusive [inhibitor, single point]",
COC(=O)c1ccccc1N/C=C1\CCc2c(c(C)nn2-c2ccccn2)C1=O,"inconclusive [inhibitor, single point]",
CC(C)CCNc1nc(-c2ccco2)c2c(c1C#N)CCCC2,"inconclusive [inhibitor, single point]",
CC1CCCC(NC(=S)Nc2ccc(SC(F)F)cc2)C1C (stereo unspecified),"inconclusive [inhibitor, single point]",
COc1ccccc1N1CCN(C(c2cccs2)C(C)NC(=O)c2ccncc2)CC1 (stereo unspecified),"inconclusive [inhibitor, partial curve, poor fit]",
N#C/C(=C/c1ccc(Sc2nc3ccccc3[nH]2)o1)c1cccc(F)c1,"inconclusive [inhibitor, partial curve]",
COc1ccc(CCC(=O)OCc2csc(CC(=O)Nc3ccc(C)cc3)n2)cc1OC,"inconclusive [inhibitor, single point]",
CC(C)NC(=O)N(C)C[C@@H]1OCc2cnnn2CCCC(=O)N([C@@H](C)CO)C[C@H]1C,inactive,
Cc1ccc(C2CC(c3ccccc3)=NN2C(=O)CSc2nnc(-c3ccc(Cl)cc3)o2)o1 (stereo unspecified),"inconclusive [inhibitor, single point]",
COc1ccc2[nH]cc(CCNS(=O)(=O)c3ccc(NC(C)=O)cc3)c2c1,"inconclusive [inhibitor, single point]",
Cn1c(CSCCOc2ccccc2)n[nH]c1=S,active: 16.4 µM,

Compound,Potency,"activity change, negative = growth inhibition"
NS(=O)(=O)c1ccc(S(=O)(=O)c2ccccc2)nc1,inactive,
COC(=O)C(C)Sc1nnc2n(-c3cccc(C)c3)c(=O)c3c4c(sc3n12)CCCC4 (stereo unspecified),"inconclusive [inhibitor, single point]",
COc1ccc(-c2cc(C3CCNCC3)[nH]n2)cc1,"inconclusive [inhibitor, single point]",
CCOc1ccc(NC(=O)CN2C(=O)COc3ccc(S(=O)(=O)N4CCCC4)cc32)cc1,"inconclusive [inhibitor, partial curve]",
Cc1c(F)cccc1NS(=O)(=O)c1ccc2c(c1)c(C)cc(=O)n2C,"inconclusive [inhibitor, single point]",
c1ccc(COc2ccc(Oc3nc(N4CCCCC4)nc(N4CCOCC4)n3)nn2)cc1,"inconclusive [inhibitor, single point]",
CSc1nsc(SCC(=O)Nc2ccc(F)cc2)n1,"inconclusive [inhibitor, partial curve, poor fit]",
COc1ccc(CNC(=O)CS(=O)Cc2nc(-c3ccccc3C)oc2C)cc1 (stereo unspecified),"inconclusive [inhibitor, single point]",
Cc1cccc(Nc2nc(N)c([N+](=O)[O-])c(N3CC(C)OC(C)C3)n2)c1 (stereo unspecified),"inconclusive [inhibitor, single point]",
CCOc1ccc(OCC)c(NC(=O)C2CCN(c3cnccn3)CC2)c1,inactive,
O=C(c1ccc(S(=O)(=O)Nc2ccccc2)cc1)N1CCCC(C(F)(F)F)C1 (stereo unspecified),"inconclusive [inhibitor, single point]",
O=C(CSCc1ccc([N+](=O)[O-])cc1)Nc1ccccc1C(=O)O,"inconclusive [inhibitor, single point]",
COc1ccccc1-c1cc(C(=O)N/N=C/c2ccc(C)o2)c2ccccc2n1,"inconclusive [inhibitor, full curve]",
COc1cccc(NC(=O)COC(=O)CNC(=O)C2CCCCC2)c1,inactive,
Cc1cc(-c2ccc(C)c(S(=O)(=O)NCc3ccc(Br)cc3)c2)on1,"inconclusive [inhibitor, single point]",
O=C(N[C@H]1C/C=C\C(c2ccc(F)cc2)N(Cc2ccccc2)C(=O)C1)OCC1c2ccccc2-c2ccccc21 (stereo partly specified),active: 20.6 µM,
CC1(C(=O)Nc2ccc3[nH]ncc3c2)CCN1C(=O)CCc1ccccc1 (stereo unspecified),"inconclusive [inhibitor, single point]",
COc1cccc(-c2cc(NC(C)=O)c3ncc(-c4ccc(OC)c(OC)c4)n3c2)c1,active: 20.6 µM,
CCOc1ccc(NC(=O)Cn2nnc(-c3ccc(C(N)=O)cc3)n2)cc1S(=O)(=O)N1CCCC1,"inconclusive [inhibitor, partial curve]",
CC(C)C(=O)NNC(=O)CSc1nnnn1C(C)C,inactive,
COc1cc(C2CC(c3cccs3)=NN2C(=O)CCl)ccc1OC(F)F (stereo unspecified),active: 4.11 µM,
O=C(/C=C/c1ccc2c(c1)OCO2)NCc1ccco1,inactive,
O=C(c1ccc(F)cc1F)N1CCC(c2noc(-c3ccc(S(=O)(=O)N4CCCC4)cc3)n2)CC1,"inconclusive [inhibitor, single point]",
